{
  "source": "the supplement of paper PMC8047034",
  "note": "Structures can show the parent of a compound that is named as a salt. The list shows a part of the results. Repeats are few or missing, and single values can be far off.",
  "data": [
    {"tested_on": "Ov4Carbo", "test": "log2 surviving fraction (library drug vs vehicle, or drug + carboplatin vs carboplatin alone; relative to plate median); ovarian cancer lines: OVCAR4 is platinum-sensitive and Ov4Carbo platinum-resistant; higher = more cell survival", "conditions": "library drug concentration 10 µM; 7 days; carboplatin co-treatment 5 µM", "values": [
      {"smiles": "OC(c1ccccc1)(c1ccccc1)C1CCNCC1", "note": "[Azacyclonol]", "log2 surviving fraction": -1.25},
      {"smiles": "COc1cc2nc(N3CCN(C(=O)C4CCCO4)CC3)nc(N)c2cc1OC", "note": "(configuration not stated) [Terazosin HCl (Hytrin)]", "log2 surviving fraction": 0.313},
      {"smiles": "CCn1cc(C(=O)O)c(=O)c2ccc(C)nc21", "note": "[Nalidixic acid (NegGram)]", "log2 surviving fraction": 0.636},
      {"smiles": "CC=CC1=C(C(=O)O)N2C(=O)[C@@H](NC(=O)[C@H](N)c3ccc(O)cc3)[C@H]2SC1", "note": "[Cefprozil hydrate (Cefzil)]", "log2 surviving fraction": -0.458},
      {"smiles": "CCOc1nc2cccc(C(=O)O)c2n1Cc1ccc(-c2ccccc2-c2noc(=O)[nH]2)cc1", "note": "[Azilsartan (TAK-536)]", "log2 surviving fraction": -0.217},
      {"smiles": "Nc1ccc(O)c(C(=O)O)c1", "note": "[Mesalamine (Lialda)]", "log2 surviving fraction": -0.806},
      {"smiles": "COc1c(N2C[C@@H]3CCCN[C@@H]3C2)c(F)cc2c(=O)c(C(=O)O)cn(C3CC3)c12", "note": "[Moxifloxacin hydrochloride]", "log2 surviving fraction": 0.366},
      {"smiles": "Cc1onc(-c2c(Cl)cccc2Cl)c1C(=O)N[C@@H]1C(=O)N2[C@@H]1SC(C)(C)[C@@H]2C(=O)O", "note": "[Dicloxacillin Sodium]", "log2 surviving fraction": 1.1},
      {"smiles": "Cn1cnc([N+](=O)[O-])c1Sc1ncnc2[nH]cnc12", "note": "[Azathioprine (Azasan, Imuran)]", "log2 surviving fraction": -2.49},
      {"smiles": "CCOc1ccc(NC(C)=O)cc1", "note": "[Phenacetin]", "log2 surviving fraction": 0.194},
      {"smiles": "CC(C)(O/N=C(\\C(=O)N[C@@H]1C(=O)N2C(C(=O)[O-])=C(C[n+]3ccccc3)CS[C@H]12)c1csc(N)n1)C(=O)O", "note": "[Ceftazidime Pentahydrate]", "log2 surviving fraction": 0.527},
      {"smiles": "NC(CO)(CO)CO", "note": "[Trometamol]", "log2 surviving fraction": -0.42}
    ]}
  ]
}
